# Test results taken from publication PMC12136788.
# Some of the results follow.
# T1: UNK ZnF1-3 (human, UniProt Q9C0B0 31-174)
# T1 sequence: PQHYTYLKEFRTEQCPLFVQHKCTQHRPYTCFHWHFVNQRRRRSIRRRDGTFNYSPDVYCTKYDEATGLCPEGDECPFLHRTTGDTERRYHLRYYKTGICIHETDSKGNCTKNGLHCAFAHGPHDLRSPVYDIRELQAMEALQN
# B1: 38075952_38076072_829_CDS_ENSMUSG00000026083_ENSMUST00000027252|mouse|control|control (ssRNA)
# RNA: GGGAGUUCUACAGUCCGACGAUCUUUUUUCUGUCCUUUUCUGGACUGCAAAAAUUCAUCGGACUCACCACCACUUUCACCAGAGGAGUUUACUCUCGAACGUUCUUUACUUCUUUUGCUAUUGUCUUCAUCCUCUUCUGACCCCAACAGAGGAUUGAGCAUCA
# B2: chr7:7679991:7679992:-_ENSG00000106399_ENST00000396682|hu_hu|hu_hu_hu_mus_False|98_98 (ssRNA)
# RNA: GGGAGUUCUACAGUCCGACGAUCUGGGAUGAAUCUUUUCCAGCCUCCCCACGAAGCACACGGGCCGGUCGAUAUACUGUGGUAACAUGCUGGCGUUGACGCGCGCUUUGGGGAGCUGCAUUAUGUCCUCCAUGAUUCUGCCGCCAACAGAGGAUUGAGCAUCA
# B3: chr11:18536319:18536320:-_ENSG00000074319_ENST00000251968|perfect_dup|motif|central (ssRNA)
# RNA: GGGAGUUCUACAGUCCGACGAUCAAGAUAUAUCUUCCCAUUUGCAUCAACAUGCUUUCCUGUUUUAAUAGUCAUUGAACGGGUAGGCUUAACAAAACAGAUAGGGGGAUUAUAUGGGUAUGUGUCCAGUAGCCAUAGGCAUAUCAACAGAGGAUUGAGCAUCA
# B4: chr4:95690885:95690886:+_ENSMUSG00000028572_ENSMUST00000156910|mus_mus|mus_mus_mus_hu_False|28_108 (ssRNA)
# RNA: GGGAGUUCUACAGUCCGACGAUCUUUAUUUUUAGAAAAAUACCAUGCUAAAAUAUUUUCAAAGGCUUAUUUUAUUUUACCAGAAGUCACAGGCAAGCAGACACUACAAACAUACAAGAAAAUGAAACUCAACAAUAUAACUGUCAACAGAGGAUUGAGCAUCA
# B5: 26221340_26223884_1027_CDS_ENSG00000221914_ENST00000315985|human|control|control (ssRNA)
# RNA: GGGAGUUCUACAGUCCGACGAUCUAUGCAGUCAUUUUCAUACAGUGAACAGAGUUUACUUCUGAGGUAUUCAUGCACCUGGUAUGUUUCCACAGGCCUGUUUUCCAUAUUUAAGUCCCAAAUUUUGACUGACAAAUAGUCUCUCAACAGAGGAUUGAGCAUCA
# B6: chr4:17845017:17845018:+_ENSG00000109805_ENST00000514176|hu_mus|hu_hu_hu_mus_False|78_78 (ssRNA)
# RNA: GGGAGUUCUACAGUCCGACGAUCGCUCUCUUAACUUGUAUCUUCAUUAAGGAACUCGCAAGGUUAAAGUUUACUUUUCUGUAGCGCAGCUGUUUUGGCUCGUCUGGGUAAUCUCAUCUUCAUUUCUGAUGGUGGUUCAUGAUCCAACAGAGGAUUGAGCAUCA
# B7: chr4:148551591:148551592:-_ENSMUSG00000063077_ENSMUST00000060537|mus_hu|mus_mus_mus_hu_False|8_18 (ssRNA)
# RNA: GGGAGUUCUACAGUCCGACGAUCACCUGACAAAAUUAAAUAUCCCUGUAAAUUAGACAAUAAGCAGCAGGCAACAAAGUCUUUGCUUUGGAAUAUGUGCCAGGAAAAGUCAUCUUGUAGACCCCAAACACCUUUCAGUUCACACAACAGAGGAUUGAGCAUCA
# B8: chr7:56126341:56126342:+_ENSG00000146731_ENST00000540286|hu_mus|hu_hu_hu_mus_True|18_98 (ssRNA)
# RNA: GGGAGUUCUACAGUCCGACGAUCCAUGUUUCUCCUCUUAGCUCUGCGCAGAGCUACGAUCCCUUCUUUCGCAAGGGCAUCUAAGGAAAAGGGGUCAAUCCCCUUUUGAUUAAUAACAACAAAUCCUUUAUCUGAGUCACCACACAACAGAGGAUUGAGCAUCA
# B9: chr6:84311021:84311022:-_ENSG00000065609_ENST00000520302|hu_mus|FALSE|FALSE (ssRNA)
# RNA: GGGAGUUCUACAGUCCGACGAUCCCCAGGAGAAGCUGCAAAGGCAUCUCCAAAGAGAUCCACUUCCGUAGUGACAGCCGUCACAGCUGUGGUGGUCGAGGCAGAGGCUGAAGCAGGCUCAGUGGUUGUAGUAGGAGGGGAAGGCAACAGAGGAUUGAGCAUCA
# B10: chr12:39756943:39756944:-_ENSG00000139116_ENST00000544797|hu_mus|hu_hu_hu_mus_False|88_88 (ssRNA)
# RNA: GGGAGUUCUACAGUCCGACGAUCGGUUUGGCUGUUACCCCCAAGGGAAUCCUGUAGGAGUCUUGUCAGCUUAGAGUCUCUGUAAGGGACAUGGGUGGCUCUCUUGCUCUUGUCCCCCAAGGCGCUGAUUACAUUCCCAAGAGCCAACAGAGGAUUGAGCAUCA
# B11: chr16:94664382:94664383:+_ENSMUSG00000040785_ENSMUST00000117648|mus_mus|FALSE|FALSE (ssRNA)
# RNA: GGGAGUUCUACAGUCCGACGAUCUCCUGGUAUGGACUUCACAUCCUCAGACAGUGCUUCAGACUUUACAUCUGGUUGAAAUUCCCUAGCAGUUGGAUUUAGUGGUAGUUUAACUCGUAAAUAUUCUCCUGUUUUUGAAAUGUCCAACAGAGGAUUGAGCAUCA
# B12: chr3:157717571:157717572:+_ENSMUSG00000063052_ENSMUST00000156597|mus_mus|motif|central (ssRNA)
# RNA: GGGAGUUCUACAGUCCGACGAUCUCUUGAGUUCCUUUAGCUAUAAUUUCUCUUCGAAUGGUUCUUAGAGGAUUUCCUUCGGGUGCCAGGAAUUUCAAAUGAAGAUUUCCCAAUGAGCAGGGCAGACUACUAAUAUCAUUGUUGCAACAGAGGAUUGAGCAUCA
# B13: chr11:119138191:119138192:+_ENSMUSG00000025579_ENSMUST00000026666|mus_hu|FALSE|FALSE (ssRNA)
# RNA: GGGAGUUCUACAGUCCGACGAUCGCCGGUCUCGUUGGUGAUGAAAACCCCCCUCCGCAGACCCUCGUCGUAGGGCCUGUAGCUCCCGGCAGGGCCCGAGCUGCUGAUGGCAGGAUCCACGAUCAUCAUGUAGCGCCGGCCGCCCAACAGAGGAUUGAGCAUCA
# B14: 26111430_26111550_622_CDS_ENSMUSG00000045039_ENSMUST00000128119|mouse|control|control (ssRNA)
# RNA: GGGAGUUCUACAGUCCGACGAUCAGCCUCAAUGGGUGGGGGCCGGGUGCUCCCACUCAGACUAGCAAGCAGAGGGCCUUGGGGCGAGUCACCGUCAUACACAAAGAGGUAGUCAUAAGUGCACUCCGUGUCCAGGAAAAGGAACAACAGAGGAUUGAGCAUCA
# Molecular target: T1, UNK ZnF1-3
# Assay: nsRBNS (natural sequence RNA bind-n-seq); RBNS binding buffer (assumed for nsRBNS): 25 mM Tris pH 7.5, 150 mM KCl, 3 mM MgCl2, 0.01% Triton X-100, 500 ug/ml BSA, 20 U/ml SUPERase-In, 4 C; UNK is unkempt and MSI1 is Musashi-1; names of the RNAs are library labels; protein concentration not given here; high values mean tight binding
row,Binder,binding signal [enrichment R]
1,B1,0.438
2,B2,0.511
3,B3,0.798
4,B4,2.17
5,B5,0.717
6,B6,0.422
7,B7,1.61
8,B8,0.743
9,B9,1.38
10,B10,0.864
11,B11,0.665
12,B12,1.31
13,B13,0.811
14,B14,2.27
